The supplement of paper PMC11876631
± gives the standard deviation of the averaged measurements. Laboratory Escherichia coli strains with one amino-acid change in an essential protein, pooled on minimal glucose agar with carbenicillin or gentamicin at twice the control MIC (plus kanamycin and chloramphenicol for the plasmids), 48 h. Fold change of barcode share against drug-free plates; higher = less susceptible. Active = above 20 in both replicates (the paper's putatively resistant). '<' = one read or none on drug, '>' = one read or none on a drug-free plate. Shares are relative, so most strains fall below 1 when a few take over. Listed are strains with at least 15 reads on both drug-free plates, and hits; most hits rest on fewer reference reads. Replicate rank correlation about 0.5. Edits are read from barcodes.

B1: purA L267A (protein)
chain: MGNNVVVLGTQWGDEGKGKIVDLLTERAKYVVRYQGGHNAGHTLVINGEKTVLHLIPSGILRENVTSIIGNGVVLSPAALMKEMKELEDRGIPVRERLLLSEACPLILDYHVALDNAREKARGAKAIGTTGRGIGPAYEDKVARRGLRVGDLFDKETFAEKLKEVMEYHNFQLVNYYKAEAVDYQKVLDDTMAVADILTSMVVDVSDLLDQARQRGDFVMFEGAQGTLLDIDHGTYPYVTSSNTTAGGVATGSGLGPRYVDYVLGIAKAYSTRVGAGPFPTELFDETGEFLCKQGNEFGATTGRRRRTGWLDTVAVRRAVQLNSLSGFCLTKLDVLDGLKEVKLCVAYRMPDGREVTTTPLAADDWKGVEPIYETMPGWSESTFGVKDRSGLPQAALNYIKRIEELTGVPIDIISTGPDRTETMILRDPFDA
B2: purA L267W (protein)
chain: MGNNVVVLGTQWGDEGKGKIVDLLTERAKYVVRYQGGHNAGHTLVINGEKTVLHLIPSGILRENVTSIIGNGVVLSPAALMKEMKELEDRGIPVRERLLLSEACPLILDYHVALDNAREKARGAKAIGTTGRGIGPAYEDKVARRGLRVGDLFDKETFAEKLKEVMEYHNFQLVNYYKAEAVDYQKVLDDTMAVADILTSMVVDVSDLLDQARQRGDFVMFEGAQGTLLDIDHGTYPYVTSSNTTAGGVATGSGLGPRYVDYVLGIWKAYSTRVGAGPFPTELFDETGEFLCKQGNEFGATTGRRRRTGWLDTVAVRRAVQLNSLSGFCLTKLDVLDGLKEVKLCVAYRMPDGREVTTTPLAADDWKGVEPIYETMPGWSESTFGVKDRSGLPQAALNYIKRIEELTGVPIDIISTGPDRTETMILRDPFDA
B3: purA L267Q (protein)
chain: MGNNVVVLGTQWGDEGKGKIVDLLTERAKYVVRYQGGHNAGHTLVINGEKTVLHLIPSGILRENVTSIIGNGVVLSPAALMKEMKELEDRGIPVRERLLLSEACPLILDYHVALDNAREKARGAKAIGTTGRGIGPAYEDKVARRGLRVGDLFDKETFAEKLKEVMEYHNFQLVNYYKAEAVDYQKVLDDTMAVADILTSMVVDVSDLLDQARQRGDFVMFEGAQGTLLDIDHGTYPYVTSSNTTAGGVATGSGLGPRYVDYVLGIQKAYSTRVGAGPFPTELFDETGEFLCKQGNEFGATTGRRRRTGWLDTVAVRRAVQLNSLSGFCLTKLDVLDGLKEVKLCVAYRMPDGREVTTTPLAADDWKGVEPIYETMPGWSESTFGVKDRSGLPQAALNYIKRIEELTGVPIDIISTGPDRTETMILRDPFDA
B4: purA L267D (protein)
chain: MGNNVVVLGTQWGDEGKGKIVDLLTERAKYVVRYQGGHNAGHTLVINGEKTVLHLIPSGILRENVTSIIGNGVVLSPAALMKEMKELEDRGIPVRERLLLSEACPLILDYHVALDNAREKARGAKAIGTTGRGIGPAYEDKVARRGLRVGDLFDKETFAEKLKEVMEYHNFQLVNYYKAEAVDYQKVLDDTMAVADILTSMVVDVSDLLDQARQRGDFVMFEGAQGTLLDIDHGTYPYVTSSNTTAGGVATGSGLGPRYVDYVLGIDKAYSTRVGAGPFPTELFDETGEFLCKQGNEFGATTGRRRRTGWLDTVAVRRAVQLNSLSGFCLTKLDVLDGLKEVKLCVAYRMPDGREVTTTPLAADDWKGVEPIYETMPGWSESTFGVKDRSGLPQAALNYIKRIEELTGVPIDIISTGPDRTETMILRDPFDA
B5: purA F328A (protein)
chain: MGNNVVVLGTQWGDEGKGKIVDLLTERAKYVVRYQGGHNAGHTLVINGEKTVLHLIPSGILRENVTSIIGNGVVLSPAALMKEMKELEDRGIPVRERLLLSEACPLILDYHVALDNAREKARGAKAIGTTGRGIGPAYEDKVARRGLRVGDLFDKETFAEKLKEVMEYHNFQLVNYYKAEAVDYQKVLDDTMAVADILTSMVVDVSDLLDQARQRGDFVMFEGAQGTLLDIDHGTYPYVTSSNTTAGGVATGSGLGPRYVDYVLGILKAYSTRVGAGPFPTELFDETGEFLCKQGNEFGATTGRRRRTGWLDTVAVRRAVQLNSLSGACLTKLDVLDGLKEVKLCVAYRMPDGREVTTTPLAADDWKGVEPIYETMPGWSESTFGVKDRSGLPQAALNYIKRIEELTGVPIDIISTGPDRTETMILRDPFDA
B6: purA F328W (protein)
chain: MGNNVVVLGTQWGDEGKGKIVDLLTERAKYVVRYQGGHNAGHTLVINGEKTVLHLIPSGILRENVTSIIGNGVVLSPAALMKEMKELEDRGIPVRERLLLSEACPLILDYHVALDNAREKARGAKAIGTTGRGIGPAYEDKVARRGLRVGDLFDKETFAEKLKEVMEYHNFQLVNYYKAEAVDYQKVLDDTMAVADILTSMVVDVSDLLDQARQRGDFVMFEGAQGTLLDIDHGTYPYVTSSNTTAGGVATGSGLGPRYVDYVLGILKAYSTRVGAGPFPTELFDETGEFLCKQGNEFGATTGRRRRTGWLDTVAVRRAVQLNSLSGWCLTKLDVLDGLKEVKLCVAYRMPDGREVTTTPLAADDWKGVEPIYETMPGWSESTFGVKDRSGLPQAALNYIKRIEELTGVPIDIISTGPDRTETMILRDPFDA
B7: purA F328Q (protein)
chain: MGNNVVVLGTQWGDEGKGKIVDLLTERAKYVVRYQGGHNAGHTLVINGEKTVLHLIPSGILRENVTSIIGNGVVLSPAALMKEMKELEDRGIPVRERLLLSEACPLILDYHVALDNAREKARGAKAIGTTGRGIGPAYEDKVARRGLRVGDLFDKETFAEKLKEVMEYHNFQLVNYYKAEAVDYQKVLDDTMAVADILTSMVVDVSDLLDQARQRGDFVMFEGAQGTLLDIDHGTYPYVTSSNTTAGGVATGSGLGPRYVDYVLGILKAYSTRVGAGPFPTELFDETGEFLCKQGNEFGATTGRRRRTGWLDTVAVRRAVQLNSLSGQCLTKLDVLDGLKEVKLCVAYRMPDGREVTTTPLAADDWKGVEPIYETMPGWSESTFGVKDRSGLPQAALNYIKRIEELTGVPIDIISTGPDRTETMILRDPFDA
B8: purA F328P (protein)
chain: MGNNVVVLGTQWGDEGKGKIVDLLTERAKYVVRYQGGHNAGHTLVINGEKTVLHLIPSGILRENVTSIIGNGVVLSPAALMKEMKELEDRGIPVRERLLLSEACPLILDYHVALDNAREKARGAKAIGTTGRGIGPAYEDKVARRGLRVGDLFDKETFAEKLKEVMEYHNFQLVNYYKAEAVDYQKVLDDTMAVADILTSMVVDVSDLLDQARQRGDFVMFEGAQGTLLDIDHGTYPYVTSSNTTAGGVATGSGLGPRYVDYVLGILKAYSTRVGAGPFPTELFDETGEFLCKQGNEFGATTGRRRRTGWLDTVAVRRAVQLNSLSGPCLTKLDVLDGLKEVKLCVAYRMPDGREVTTTPLAADDWKGVEPIYETMPGWSESTFGVKDRSGLPQAALNYIKRIEELTGVPIDIISTGPDRTETMILRDPFDA
B9: purA L75A (protein)
chain: MGNNVVVLGTQWGDEGKGKIVDLLTERAKYVVRYQGGHNAGHTLVINGEKTVLHLIPSGILRENVTSIIGNGVVASPAALMKEMKELEDRGIPVRERLLLSEACPLILDYHVALDNAREKARGAKAIGTTGRGIGPAYEDKVARRGLRVGDLFDKETFAEKLKEVMEYHNFQLVNYYKAEAVDYQKVLDDTMAVADILTSMVVDVSDLLDQARQRGDFVMFEGAQGTLLDIDHGTYPYVTSSNTTAGGVATGSGLGPRYVDYVLGILKAYSTRVGAGPFPTELFDETGEFLCKQGNEFGATTGRRRRTGWLDTVAVRRAVQLNSLSGFCLTKLDVLDGLKEVKLCVAYRMPDGREVTTTPLAADDWKGVEPIYETMPGWSESTFGVKDRSGLPQAALNYIKRIEELTGVPIDIISTGPDRTETMILRDPFDA
B10: purA L75W (protein)
chain: MGNNVVVLGTQWGDEGKGKIVDLLTERAKYVVRYQGGHNAGHTLVINGEKTVLHLIPSGILRENVTSIIGNGVVWSPAALMKEMKELEDRGIPVRERLLLSEACPLILDYHVALDNAREKARGAKAIGTTGRGIGPAYEDKVARRGLRVGDLFDKETFAEKLKEVMEYHNFQLVNYYKAEAVDYQKVLDDTMAVADILTSMVVDVSDLLDQARQRGDFVMFEGAQGTLLDIDHGTYPYVTSSNTTAGGVATGSGLGPRYVDYVLGILKAYSTRVGAGPFPTELFDETGEFLCKQGNEFGATTGRRRRTGWLDTVAVRRAVQLNSLSGFCLTKLDVLDGLKEVKLCVAYRMPDGREVTTTPLAADDWKGVEPIYETMPGWSESTFGVKDRSGLPQAALNYIKRIEELTGVPIDIISTGPDRTETMILRDPFDA
B11: purA L75Q (protein)
chain: MGNNVVVLGTQWGDEGKGKIVDLLTERAKYVVRYQGGHNAGHTLVINGEKTVLHLIPSGILRENVTSIIGNGVVQSPAALMKEMKELEDRGIPVRERLLLSEACPLILDYHVALDNAREKARGAKAIGTTGRGIGPAYEDKVARRGLRVGDLFDKETFAEKLKEVMEYHNFQLVNYYKAEAVDYQKVLDDTMAVADILTSMVVDVSDLLDQARQRGDFVMFEGAQGTLLDIDHGTYPYVTSSNTTAGGVATGSGLGPRYVDYVLGILKAYSTRVGAGPFPTELFDETGEFLCKQGNEFGATTGRRRRTGWLDTVAVRRAVQLNSLSGFCLTKLDVLDGLKEVKLCVAYRMPDGREVTTTPLAADDWKGVEPIYETMPGWSESTFGVKDRSGLPQAALNYIKRIEELTGVPIDIISTGPDRTETMILRDPFDA

target: Escherichia coli (laboratory strain); test: barcode share on antibiotic plates over drug-free plates; higher = less susceptible; settings: antibiotic: carbenicillin; 2× MIC (3.1 µg/mL)
Protocol: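 A pool of E. coli strains, each edited to carry one amino-acid change in an essential protein, was grown for 48 h on minimal glucose agar with or without antibiotic; strain barcodes were sequenced; mean of two replicates.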

| Protein | fold change of barcode share |
| --- | --- |
| B1 | 0.399 ± 0.1 |
| B2 | 0.321 ± 0.085 |
| B3 | 0.455 ± 0.1 |
| B4 | 204 [active] |
| B5 | 0.323 ± 0.041 |
| B6 | 0.674 ± 0.45 |
| B7 | 0.399 ± 0.0066 |
| B8 | > 37.9 [active] |
| B9 | 0.366 ± 0.016 |
| B10 | 136 [active] |
| B11 | 0.493 ± 0.094 |

same assay, conditions: antibiotic: gentamicin; 2× MIC (MIC 0.45 µg/mL)

| Protein | fold change of barcode share |
| --- | --- |
| B1 | 0.00931 ± 0.0092 |
| B2 | < 0.00835 |
| B3 | 0.0088 ± 0.0057 |
| B5 | < 0.00127 |
| B6 | 0.00276 ± 0.00097 |
| B7 | 0.00551 ± 0.0014 |
| B9 | 0.128 ± 0.019 |
| B11 | 0.00576 ± 0.0054 |
